Structures are written as SMILES. Several values for one entry are separate records, joined by “and”; a condition that tells them apart may be missing. Equal entries are not always repeated. The list shows a part of the results. The main result of the screen is listed elsewhere. These columns were measured beside it and carry no call.

The experiment can be described thus: enhancers of HSV replication in host cells, fold increase, host cell viability (AID 1956). Also: tested in PC3 cells. The conditions noted are these: HSV replication augmentation in cells; fold increase: measured here: primary screen fold increase 10 uM, at 10 µM, stronger effect = higher value; viability: measured here: host cell viability series, at 25 µM, stronger effect = lower value.
A word on the viability: it is a read-out of living cells in per cent, often relative to untreated cells. With `O=[N+]([O-])c1cccc2c([As](=O)(O)O)cccc12`, the fold increase stood at 1.34 and the viability amounted to 98.6%. As for `CC(C)n1c(=O)c(C=Nc2cccc([N+](=O)[O-])c2)c(O)n(CCc2ccccc2)c1=O`, the fold increase was determined as 1.77 and the viability was 90.8%. For `CCN(CC)c1ccc(/C=N/c2sc3c(c2C#N)C2CCN3CC2)c(O)c1`, in that order: 7.18 and 78.6%. For `O=[N+]([O-])c1ccc(NCc2ccccc2)c2nonc12`, the fold increase worked out at 9.09. Same read-out and setting: the same measure for `CN1CCN(c2nc3ccccn3c(=O)c2C=C2C(=O)N(C)C(=O)N(C)C2=O)CC1`: 1.65; for `CCCCn1c(O)c(C(C)=NCCCn2ccnc2)c(=O)[nH]c1=O`: 1.32.

`O=C1NC(=O)C2=Cc3ccc(O)cc3OC2(O)N1` (configuration not stated): the fold increase was found to be 2.97 and the viability was found to be 91.6%. With `CC(C)(C)OC(=O)c1c(N)n(Cc2ccco2)c2nc3ccccc3nc12`, the fold increase was found to be 1.45 and the viability was 94.7%. As to `Cc1cc(OC(=O)N(C)C)nc(-c2ccc(C)c(Cl)c2)n1`, the fold increase amounted to 1.32. Consider `CCOC(=O)c1ccc(N=C(C)c2c(O)[nH]c(=O)[nH]c2=O)cc1`, for which the fold increase stood at 1.36 and the viability worked out at 97.8%. Taken in the same sequence, the figures for `Cc1cccc(N2C(=O)NC(=O)/C(=C/c3ccc([N+](=O)[O-])o3)C2=O)c1` were 1.32 and 99.1%.

As for `O=C1NC(=O)N(Cc2ccc(F)cc2)C(=O)/C1=C\c1ccoc1`, the fold increase turned out to be 2.57 and the viability came out at 98.4%.

As for `Cc1cccc(-n2c(O)c(/C=C/C=Nc3ccccc3)c(=O)[nH]c2=O)c1`, the fold increase amounted to 2.71. The same measure, in the same setting: the figure for `CCCCC(=O)N/N=C/c1c(O)n(CC)c(=S)n(CC)c1=O` is 1.32. Regarding `Cc1ccccc1-n1c(C)cc(/C=C2/C(=O)NC(=O)N(Cc3ccco3)C2=O)c1C`, the fold increase stood at 1.82 and the viability worked out at 97.1%. Taken in the same sequence, the figures for `COc1cc(/C=C/c2nc3ccccc3c(=O)n2-c2cccc(O)c2)ccc1O` were 5.59 and 81.3%.

For the compound `Cc1nc2ccccc2c(=O)n1-n1cnnc1`, the fold increase was found to be 1.44 and the viability is 101%. With `CN1CCN(c2ccc(/C=C3\C(=O)NC(=S)N(c4cccc(Br)c4)C3=O)o2)CC1`, the fold increase was determined as 1.48. Still for that read-out and setting: the same measure for `CN1CCN(c2ccc([N+](=O)[O-])c3no[n+]([O-])c23)CC1`: 4.91. As to `C=CCN1C(=O)/C(=C/c2cc(C)n(-c3cccnc3)c2C)C(=O)NC1=S`, the fold increase came to 1.36 and the viability was 94.2%. For `O=c1[nH]c(=O)n(Cc2ccccc2)c(O)c1C=NCCCO`, in that order: 1.37 and 96.2%.

As to `Cc1cc(C)cc(N2C(=O)/C(=C\c3ccc(N4CCN(C)CC4)o3)C(=O)NC2=S)c1`, the fold increase stood at 2.57 and the viability was determined as 92.7%. In the case of `O=C1NC(=O)C(=Cc2ccc(-c3cc(Cl)ccc3[N+](=O)[O-])o2)C(=O)N1`, the fold increase was determined as 1.42 and the viability came out at 62.5%. `Nc1c(C(=O)NCC2CCCO2)c2nc3ccccc3nc2n1Cc1ccco1` (configuration not stated): the fold increase was 1.39. Turning to `O=C1NC(=O)N(c2ccc(Cl)cc2)C(=O)/C1=C\c1ccc(Sc2nc3ccccc3[nH]2)o1`, the fold increase is 1.49 and the viability was 94.5%.

Regarding `CN(C)/C=C1/C(=O)NC(=O)N(CCNc2ncc(C(F)(F)F)cc2Cl)C1=O`, the fold increase was 1.47 and the viability was found to be 99%. Taken in the same sequence, the figures for `CC(=O)C1C2c3ccccc3O[C@@]1(C)N=c1s/c(=C/c3ccoc3)c(=O)n12` (some centres not stated) were 2.37 and 93.5%. Regarding `CCOc1cc(C2C(C#N)=C(N)Oc3c2c(=O)oc2ccccc32)ccc1OC(=O)c1cccs1` (configuration not stated), the fold increase was 1.58 and the viability turned out to be 99.5%. For `Nc1c(C(=O)NCCN2CCOCC2)c2nc3ccccc3nc2n1Cc1ccco1`, in that order: 1.17 and 89.3%. Taken in the same sequence, the figures for `CC1(C(O)(C#CCN2CCCCC2)c2ccccc2)CCCC1` (configuration not stated) were 1.49 and 78.1%. For `CN1CCC2(CC1)C(C#N)=C(N)NC(S)=C2C#N`, in that order: 1.38 and 91.3%.

For `CCN1C(=O)C(=C/C=C/c2ccco2)C(=O)N(CC)C1=S`, the fold increase was 1.87 and the viability came out at 95.4%.

`O=C1NC(=S)N(Cc2ccco2)C(=O)/C1=C\c1cccs1`: the fold increase turned out to be 1.34. For the compound `O=C(O)CCC(=O)NCCC1=c2ccccc2=N/C1=C\c1c(O)n(Cc2ccc(F)cc2)c(=S)[nH]c1=O`, the fold increase amounted to 1.61 and the viability worked out at 103%. Take `Cc1ccc(/C=C2/C(=O)NC(=O)N(CCc3ccc(F)cc3)C2=O)o1`: the fold increase is 1.12.

As to `Cc1ccc2cc(C=C(C#N)C#N)c(Cl)nc2c1`, the fold increase was 1.32. In the case of `Cc1ccnc(-n2c(C)cc(/C=C3\C(=O)NC(=S)N(C)C3=O)c2C)c1`, the fold increase was 1.5 and the viability is 91.9%. For `Cc1ccc(N2C(=O)NC(=O)/C(=C\c3cc(C)n(-c4sc5c(c4C#N)CCCC5)c3C)C2=O)cc1`, the fold increase is 1.35. On to `CCN(CC)c1ccc(/C=C2\C(=O)NC(=S)N(C)C2=O)o1`, for which the fold increase turned out to be 1.88 and the viability amounted to 94.1%. Taken in the same sequence, the figures for `CCOC(=O)c1c(N)n(Cc2ccco2)c2nc3ccccc3nc12` were 1.65 and 94.8%. As to `Nc1cncc(C(=O)O)c1`, the fold increase was 1.51 and 3.33; the viability was 107% and 100%.

For `COc1ccc(C(C)=O)cc1CC(C(=O)c1ccc(F)cc1)N(C)C` (configuration not stated), the fold increase was 1.38 and the viability is 98.4%. Turning to `O=C1NC(=O)C(=Cc2ccc(N3CCOCC3)o2)C(=O)N1`, the fold increase was determined as 1.4 and the viability came to 99.4%. Consider `N#CC1=C(N)Oc2cc(O)ccc2C1c1ccc2c(c1)OCO2` (configuration not stated), for which the fold increase was found to be 2.13 and the viability is 92.6%.

Regarding `COc1ccc(-n2c(O)c(/C=C/C=Nc3ccccc3)c(=O)[nH]c2=O)cc1`, the fold increase was found to be 7.24. Take `O=Cc1c(C(=O)O)n(Cc2ccc(Cl)cc2)c2ccccc12`: the fold increase was found to be 1.41 and the viability worked out at 98.9%. For `CCN(CC)c1ccc(CC2C(=O)N(C)C(=O)N(C)C2=O)cc1`, in that order: 1.36 and 93.5%.

In the case of `CCCCN1C(=O)/C(=C/C=C/c2ccco2)C(=O)NC1=S`, the fold increase amounted to 1.62 and the viability turned out to be 97.9%. `CCN(CC)c1ccc(/C=C2/C(=O)NC(=O)N(Cc3ccco3)C2=O)cc1`: the fold increase came out at 1.51 and the viability turned out to be 92.3%. For `CN1C(=O)C(C2c3ccccc3C(=O)N2Cc2ccc([N+](=O)[O-])cc2)C(=O)N(C)C1=O` (configuration not stated), in that order: 1.34 and 90.3%. `CC1(C)OC(c2ccccc2)=C/C(=C/C=C2C(=O)NC(=O)NC2=O)O1`: the fold increase is 4.82 and the viability worked out at 91.4%. As for `O=C1NC(=O)N(Cc2ccccc2)C(=O)/C1=C/N1CCCc2ccccc21`, the fold increase is 1.34 and the viability was 102%. For `CCN1C(=O)/C(=C\c2ccc([N+](=O)[O-])s2)C(=O)NC1=S`, in that order: 1.92 and 91.2%.

Regarding `CN(C)[C@@H]1C(=O)C(C(N)=O)=C(O)[C@@]2(O)C(=O)C3=C(O)c4c(O)cccc4[C@@](C)(O)[C@H]3C[C@@H]12`, the fold increase came to 1.33 and the viability is 98.3%.

On to `O=C(/C=C/c1c[nH]c2ccccc12)c1c(O)n(CCc2ccccc2)c(=O)[nH]c1=O`, for which the fold increase is 2.75 and the viability is 98.6%.

Regarding `CC1=CC(=Cc2sc3ccccc3[n+]2C)C=C(C)O1`, the fold increase worked out at 1.77 and the viability is 48.4%. For `C/C(=N\N1CCCCCC1)c1c(O)n(-c2ccc(Cl)cc2)c(=O)[nH]c1=O`, in that order: 1.33 and 98.3%. For `Cc1ccccc1N1C(=O)NC(=O)/C(=C/c2ccc(N3CCOCC3)o2)C1=O`, in that order: 1.4 and 97.4%.

Source of the values: PubChem BioAssay AID1956 (SRMLSC, 2009).
